{
  "sequences": {"note": "Amino acid sequences for entries named in this document (tags omitted). A change or cut given only in a name is not applied to a line headed by its entry. Chains listed by the source or under a name are the forms on record and can include a tag or linker.", "UniProt Q86U44": "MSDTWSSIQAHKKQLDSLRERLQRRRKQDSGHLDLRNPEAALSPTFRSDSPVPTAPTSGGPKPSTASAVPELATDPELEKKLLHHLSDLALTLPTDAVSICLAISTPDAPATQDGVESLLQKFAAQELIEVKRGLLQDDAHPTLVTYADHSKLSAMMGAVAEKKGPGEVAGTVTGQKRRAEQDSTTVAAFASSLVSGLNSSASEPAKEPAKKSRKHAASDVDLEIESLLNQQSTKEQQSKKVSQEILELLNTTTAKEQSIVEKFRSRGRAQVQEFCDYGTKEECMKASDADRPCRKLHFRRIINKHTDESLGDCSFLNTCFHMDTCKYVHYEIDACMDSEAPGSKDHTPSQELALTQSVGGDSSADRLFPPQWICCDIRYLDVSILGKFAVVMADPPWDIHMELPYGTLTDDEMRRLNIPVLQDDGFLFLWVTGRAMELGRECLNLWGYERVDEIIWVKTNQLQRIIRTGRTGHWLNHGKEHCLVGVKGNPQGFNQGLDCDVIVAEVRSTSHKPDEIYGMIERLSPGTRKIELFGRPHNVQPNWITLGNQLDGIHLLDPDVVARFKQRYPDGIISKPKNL", "UniProt P40337": "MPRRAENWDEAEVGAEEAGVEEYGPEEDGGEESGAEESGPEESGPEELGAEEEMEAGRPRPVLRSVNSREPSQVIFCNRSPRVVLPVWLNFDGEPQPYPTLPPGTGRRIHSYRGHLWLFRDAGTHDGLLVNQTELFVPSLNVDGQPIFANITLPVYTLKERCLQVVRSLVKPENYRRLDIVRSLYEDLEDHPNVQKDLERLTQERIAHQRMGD", "VHL E3 ligase deficient mutant (VHL^Δ92–121) (P40337, form named)": "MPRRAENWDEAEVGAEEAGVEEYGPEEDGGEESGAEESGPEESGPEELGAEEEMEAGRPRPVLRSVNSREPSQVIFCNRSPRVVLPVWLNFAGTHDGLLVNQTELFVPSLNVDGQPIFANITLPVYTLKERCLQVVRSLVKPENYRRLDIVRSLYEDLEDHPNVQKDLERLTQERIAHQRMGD"},
  "source": "paper PMC11014668",
  "key": {"[1]": {"target": "T1, endogenous METTL14 (human (endogenous in HKC, 786O, UMRC2)) (UniProt Q9HCE5)", "T1 sequence": "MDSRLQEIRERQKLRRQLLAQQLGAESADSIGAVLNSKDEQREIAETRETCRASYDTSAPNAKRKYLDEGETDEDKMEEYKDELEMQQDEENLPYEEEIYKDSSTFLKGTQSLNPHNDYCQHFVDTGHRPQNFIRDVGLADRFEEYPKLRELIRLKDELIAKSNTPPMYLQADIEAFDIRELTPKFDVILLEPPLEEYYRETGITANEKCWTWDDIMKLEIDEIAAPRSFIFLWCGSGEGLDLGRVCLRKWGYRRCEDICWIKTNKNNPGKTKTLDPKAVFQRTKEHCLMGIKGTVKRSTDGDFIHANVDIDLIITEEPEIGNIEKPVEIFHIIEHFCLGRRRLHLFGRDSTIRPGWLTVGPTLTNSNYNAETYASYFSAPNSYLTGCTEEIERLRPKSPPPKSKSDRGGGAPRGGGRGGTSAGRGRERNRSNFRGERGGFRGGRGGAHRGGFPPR", "assay": "co-IP; endogenous immunoprecipitation with antibodies to VHL, METTL3 or METTL14; cell line not named; EBC buffer, Protein G beads"}, "[2]": {"target": "endogenous METTL3 (human (endogenous in 293T, HKC, 786O, UMRC2)) (UniProt Q86U44)", "assay": "co-IP; endogenous immunoprecipitation with antibodies to VHL, METTL3 or METTL14; cell line not named; EBC buffer, Protein G beads"}, "[3]": {"target": "VHL, tagged, expressed in 293T cells (Figure 1, A-D) (UniProt P40337)", "assay": "co-IP; anti-Flag or anti-HA immunoprecipitation from lysates of transfected 293T cells (exogenous and semi-endogenous); EBC buffer (0.1 mM EDTA, 50 mM Tris-HCl pH 8.0, 120 mM NaCl, 0.5% NP-40, 10% glycerol), overnight at 4°C"}, "[4]": {"target": "endogenous VHL (human (endogenous in HKC; cell line of Figure 1F-H not named)) (UniProt P40337)", "assay": "co-IP; endogenous VHL immunoprecipitation from HKC cells"}, "[5]": {"target": "endogenous VHL (human (endogenous in HKC; cell line of Figure 1F-H not named)) (UniProt P40337)", "assay": "co-IP; endogenous immunoprecipitation with antibodies to VHL, METTL3 or METTL14; cell line not named; EBC buffer, Protein G beads"}, "IVT Flag-VHL": {"target": "IVT Flag-VHL (UniProt P40337)", "assay": "pull-down; anti-Flag immunoprecipitation of IVT Flag-VHL with GST-tagged proteins expressed in vitro; EBC buffer, overnight at 4°C, in the presence of RNase"}, "[6]": {"target": "METTL3 (co-IP of Supplemental Figure 1, C and D) (UniProt Q86U44)", "assay": "co-IP; co-IP of VHL WT, truncation mutants and VHLΔ92–121 with METTL3 or METTL14 (Supplemental Figure 1, C and D)"}, "[7]": {"target": "T2, METTL14 (co-IP of Supplemental Figure 1, C and D) (UniProt Q9HCE5)", "T2 sequence": "T1 sequence", "assay": "co-IP; co-IP of VHL WT, truncation mutants and VHLΔ92–121 with METTL3 or METTL14 (Supplemental Figure 1, C and D)"}, "GST-VHL": {"target": "GST-VHL (UniProt P40337)", "assay": "pull-down; GST pull-down with purified GST or GST-VHL and IVT HA-METTL3; EBC buffer, overnight at 4°C, RNase Cocktail added; only the target purified"}},
  "note": "No constants are given. Whether binding was seen depends on the method and setting. Binding seen in cells or lysates may run through a third protein. Some entries that bind do so weakly or less than the wild type.",
  "data": [
    {"substance": "endogenous VHL (from UniProt P40337 1-213)", "values": [
      {"measurement": "binding", "setting": "[1]", "result": "binds"},
      {"measurement": "binding", "setting": "[2]", "result": "binds"}
    ]},
    {"substance": "METTL3, tagged, expressed in 293T cells (Figure 1, A-D) (from UniProt Q86U44 1-580)", "values": [
      {"measurement": "binding", "setting": "[3]", "result": "binds"}
    ]},
    {"substance": "endogenous METTL3 (from UniProt Q86U44 1-580)", "values": [
      {"measurement": "binding", "setting": "[3]", "result": "binds"},
      {"measurement": "binding", "setting": "[4]", "result": "binds"},
      {"measurement": "binding", "setting": "[5]", "result": "binds"}
    ]},
    {"substance": "METTL3-GST (from UniProt Q86U44 1-580)", "values": [
      {"measurement": "binding", "setting": "IVT Flag-VHL", "result": "binds"}
    ]},
    {"substance": "VHL E3 ligase deficient mutant (VHL^Δ92–121) (from UniProt P40337 1-213)", "values": [
      {"measurement": "binding", "setting": "[6]", "result": "no binding"},
      {"measurement": "binding", "setting": "[7]", "result": "no binding"}
    ]},
    {"substance": "in vitro translated (IVT) HA-METTL3 (from UniProt Q86U44 1-580)", "values": [
      {"measurement": "binding", "setting": "GST-VHL", "result": "binds"}
    ]},
    {"substance": "VHL WT (co-IP of Supplemental Figure 1, C and D) (from UniProt P40337 1-213)", "values": [
      {"measurement": "binding", "setting": "[6]", "result": "binds"},
      {"measurement": "binding", "setting": "[7]", "result": "binds"}
    ]}
  ]
}
